Assay results reported in PubChem BioAssay (NCATS).
The inconclusive results got no clear call from the source; some entries with a clear call stand among them for comparison. For some of these results: Potencies beside an inconclusive call are fits to weak or partial responses and may not hold up. The source made the active and inactive calls. Unless noted, calls follow the shape of the dose curve; as a rule, active = well fitted curve in the direction sought with a large enough effect; inconclusive = small, poorly fitted or top-dose-only effect, or another doubt; inactive = no such curve, though single readings can be large; an effect the other way counts as inactive or inconclusive.

Key:
[1] = biological target: Rap guanine nucleotide exchange factor 3 (Homo sapiens) (UniProt O95398); experiment: Confirmatory qHTS for antagonist of cAMP-regulated guanine nucleotide exchange factor 3 (EPAC1) (AID 1645880); also: nearly all actives have a fitted effect of over 55% in size
Outline: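 Released BODIPY-GDP fluoresces less than Rap1-bound BODIPY-GDP; the signal is followed at 480/540 nm at 5-min intervals over 30 min, after 5 min at room temperature. Reactions contain 100 nM EPAC1, 250 nM RAP1B-BODIPY-GDP and 50 uM GDP; results are normalized to ATA and DMSO.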

[2] = biological target: Rap guanine nucleotide exchange factor 3 (Homo sapiens) (UniProt O95398); experiment: Counterscreen qHTS for agonist of cAMP-regulated guanine nucleotide exchange factor 3 (EPAC1) (AID 1645889); details: EPAC1 Rap1B-BODIPY-GDP exchange, fluorescence; activation: at 154 µM (top of the series) unless noted; also: nearly all actives have a fitted effect of over 40% in size; as to activation: % of control where 0% means no effect
Outline: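 Rap1B–BODIPY-GDP (250 nM) with 50 uM GDP; compounds pin-transferred to 9.74 nM–152 uM final (activator) or from 7.32 nM upwards (inhibitor). Fluorescence Ex/Em 480/540 nm read at 5 and 30 min, then after adding cAMP or buffer, at room temperature.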

[3] = biological target: Tyrosyl-DNA phosphodiesterase 1 (Homo sapiens) (UniProt Q9NUW8); experiment: Confirmation Assay for Inhibitors of Tyrosyl-DNA Phosphodiesterase (TDP1) (AID 489007); details: recombinant human TDP1 enzymatic activity, dose-response; also: nearly all actives have a fitted effect of over 40% in size
Outline: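 AlphaScreen assay of tyrosine-FITC cleavage from a biotinylated DNA substrate (15 nM) by E. coli-expressed human Tdp1 (1 nM). Sequence: compound preincubation 15 min, reaction 5 min, bead detection 10 min, all at room temperature. No-enzyme wells give maximum signal.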

[4] = qHTS for Inhibitors of WRN Helicase: Thiazole Orange DNA Binding Counterscreen (AID 720499);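 also: drop in dye fluorescence marks compound binding to DNA; nearly all actives have a fitted effect of over 60% in size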
Outline: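 To exclude WRN hits acting through DNA binding, fluorescence of 100 nM thiazole orange bound to 50 nM unlabeled DNA is read (ex 480, em 530 nm) 15 min after compound addition at room temperature.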

[5] = biological target: DNA polymerase kappa (Homo sapiens) (UniProt Q9UBT6); experiment: qHTS for Inhibitors of Polymerase Kappa: Confirmatory Assay for Cherry-picked Compounds (AID 720501); details: purified Pol-kappa, fluorescent strand-displacement substrate
Outline: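 10 nM human Pol-kappa was preincubated with compound 15 min at room temperature, then 50 nM (final) primer/template substrate with TAMRA-labeled reporter strand and BHQ-2-labeled template added. Fluorescence (Ex 525, Em 598 nm) read at 0 and 10 min.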

[6] = biological target: Rap guanine nucleotide exchange factor 4 (Homo sapiens) (UniProt Q8WZA2); experiment: Confirmatory qHTS for antagonist of cAMP-regulated guanine nucleotide exchange factor 4 (EPAC2) (AID 1645885); details: activity change, negative = inhibition: at 114 µM (top of the series) unless noted; also: nearly all actives have a fitted effect of over 25% in size; as to activity change, negative = inhibition: % is scaled to controls: 0 for no effect and ±100 for the full control effect
[7] = biological target: Rap guanine nucleotide exchange factor 3 (Homo sapiens) (UniProt O95398); experiment: Confirmatory qHTS for agonist of cAMP-regulated guanine nucleotide exchange factor 3 (EPAC1) (AID 1645881); details: EPAC1 Rap1B BODIPY-GDP exchange fluorescence; activation: at 154 µM (top of the series), 100% = cAMP control response; also: nearly all actives have a fitted effect of over 75% in size
[8] = biological target: Tumor susceptibility gene 101 protein (Homo sapiens) (UniProt Q99816); experiment: qHTS Assay for Iinhibitors of HIV-1 Budding by Blocking the Interaction of PTAP/TSG101: Hit Validation (AID 651600); also: nearly all actives have a fitted effect of over 70% in size
Outline: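 Measuring PTAP–Tsg101 interaction by FP: protein at 10 uM and fluorescent peptide at 50 nM (final), buffer 10 mM HEPES pH 7.5 with 0.15 M NaCl, 3 mM EDTA, 0.1 mM TCEP, 0.01% Tween 20; 20 min incubation, r.t.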

[9] = biological target: DNA polymerase eta (Homo sapiens) (UniProt Q9Y253); experiment: qHTS for Inhibitors of Polymerase Eta: Confirmatory Assay for Cherry-picked Compounds (AID 720502); details: Pol eta primer extension, TAMRA/BHQ fluorescence, 10 min
Outline: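 Readout: TAMRA dequenching, ex 525/em 598 nm, read at 0 and 10 min. Enzyme: 10 nM human Pol eta, preincubated with compound 15 min RT. Substrate: 50 nM final annealed primer/reporter/template duplex.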

[10] = biological target: Rap guanine nucleotide exchange factor 4 (Homo sapiens) (UniProt Q8WZA2); experiment: Confirmatory qHTS for agonist of cAMP-regulated guanine nucleotide exchange factor 4 (EPAC2) (AID 1645884);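 also: nucleotide exchange releases bodipy-GDP from Rap1 and this lowers its fluorescence; nearly all actives have a fitted effect of over 65% in size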
[11] = qHTS Assay for Identification of Small Molecule Agonists for Hypoxia Response Element Signaling Pathway (AID 914; active = well fitted activation curve with a large enough effect in the signal ratio, with a control signal flat, not every such curve was filed as active; inconclusive = small, poorly fitted or top-dose-only effect, or effect the other way, or a change in a side signal; the % refers to the signal ratio); details: ME-180 HRE-bla reporter, beta-lactamase ratio, CoCl2, 17 h; activation: hits give high values
Outline: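 ME-180 cells carrying an HRE-driven beta-lactamase reporter were treated with compounds in a titration series plus an EC50 level of CoCl2 for 17 h at 37 degrees Celsius; CCF4 readout as the 460nm/530nm ratio gave AC50 values.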

[12] = biological target: RecQ-like DNA helicase BLM (Homo sapiens) (UniProt P54132); experiment: qHTS for Inhibitors of WRN Helicase: BLM Helicase Counterscreen for WRN Inhibitors (AID 720503); details: Recombinant BLM helicase DNA unwinding, red fluorescence; also: nearly all actives have a fitted effect of over 60% in size
Outline: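 Reactions were started with 100 nM DNA substrate and 2 mM ATP (final) after compound and 1 nM BLM stood 15 min at room temperature in Tris-HCl pH 8.0 buffer with NaCl, MgCl2, DTT and Tween-20. Two red-fluorescence reads 15 min apart were normalized against DMSO and no-enzyme wells.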
Potency is read from the fitted curve at half-maximal effect; tags tell the direction and shape of the fitted curve or compound fluorescence and quenching.

Chain of UniProt Q99816 (Q99816 whole entry, looked up): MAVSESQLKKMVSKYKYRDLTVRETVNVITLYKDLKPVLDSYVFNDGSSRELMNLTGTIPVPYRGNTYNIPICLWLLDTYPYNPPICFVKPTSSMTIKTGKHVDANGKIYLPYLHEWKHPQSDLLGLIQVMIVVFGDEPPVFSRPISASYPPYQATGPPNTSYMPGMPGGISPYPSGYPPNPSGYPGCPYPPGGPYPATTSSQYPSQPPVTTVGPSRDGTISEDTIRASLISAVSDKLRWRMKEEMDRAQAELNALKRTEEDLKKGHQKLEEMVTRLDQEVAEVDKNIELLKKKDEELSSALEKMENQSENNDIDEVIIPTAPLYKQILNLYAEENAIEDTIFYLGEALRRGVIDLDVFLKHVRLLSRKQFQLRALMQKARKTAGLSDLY
Chain of UniProt Q8WZA2 (Q8WZA2 whole entry, looked up): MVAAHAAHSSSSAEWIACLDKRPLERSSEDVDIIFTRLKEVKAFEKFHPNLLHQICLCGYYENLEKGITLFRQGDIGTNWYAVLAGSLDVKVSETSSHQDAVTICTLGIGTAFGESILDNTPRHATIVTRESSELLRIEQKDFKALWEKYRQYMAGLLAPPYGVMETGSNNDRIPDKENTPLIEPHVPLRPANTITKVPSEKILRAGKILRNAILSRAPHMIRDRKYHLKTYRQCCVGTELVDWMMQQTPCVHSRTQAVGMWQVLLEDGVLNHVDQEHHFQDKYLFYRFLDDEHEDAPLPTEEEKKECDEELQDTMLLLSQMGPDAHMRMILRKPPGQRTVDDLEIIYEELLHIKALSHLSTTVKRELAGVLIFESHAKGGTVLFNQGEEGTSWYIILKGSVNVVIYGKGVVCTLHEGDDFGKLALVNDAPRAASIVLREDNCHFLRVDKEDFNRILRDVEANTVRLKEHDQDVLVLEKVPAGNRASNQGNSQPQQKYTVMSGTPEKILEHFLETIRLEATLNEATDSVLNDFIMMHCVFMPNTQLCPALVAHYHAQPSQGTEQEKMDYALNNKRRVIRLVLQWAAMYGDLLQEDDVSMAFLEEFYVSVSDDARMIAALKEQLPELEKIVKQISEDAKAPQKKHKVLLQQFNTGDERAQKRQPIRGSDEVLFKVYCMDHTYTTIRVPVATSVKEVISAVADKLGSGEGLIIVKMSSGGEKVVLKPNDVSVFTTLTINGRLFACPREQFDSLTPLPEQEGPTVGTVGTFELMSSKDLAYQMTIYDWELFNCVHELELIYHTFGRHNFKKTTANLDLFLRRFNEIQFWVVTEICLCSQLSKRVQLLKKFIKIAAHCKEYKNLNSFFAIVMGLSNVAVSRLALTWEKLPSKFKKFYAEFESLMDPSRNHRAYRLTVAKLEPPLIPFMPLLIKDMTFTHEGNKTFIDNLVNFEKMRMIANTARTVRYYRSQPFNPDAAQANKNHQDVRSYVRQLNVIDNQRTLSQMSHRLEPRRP
Chain of UniProt Q9Y253 (Q9Y253 whole entry, looked up): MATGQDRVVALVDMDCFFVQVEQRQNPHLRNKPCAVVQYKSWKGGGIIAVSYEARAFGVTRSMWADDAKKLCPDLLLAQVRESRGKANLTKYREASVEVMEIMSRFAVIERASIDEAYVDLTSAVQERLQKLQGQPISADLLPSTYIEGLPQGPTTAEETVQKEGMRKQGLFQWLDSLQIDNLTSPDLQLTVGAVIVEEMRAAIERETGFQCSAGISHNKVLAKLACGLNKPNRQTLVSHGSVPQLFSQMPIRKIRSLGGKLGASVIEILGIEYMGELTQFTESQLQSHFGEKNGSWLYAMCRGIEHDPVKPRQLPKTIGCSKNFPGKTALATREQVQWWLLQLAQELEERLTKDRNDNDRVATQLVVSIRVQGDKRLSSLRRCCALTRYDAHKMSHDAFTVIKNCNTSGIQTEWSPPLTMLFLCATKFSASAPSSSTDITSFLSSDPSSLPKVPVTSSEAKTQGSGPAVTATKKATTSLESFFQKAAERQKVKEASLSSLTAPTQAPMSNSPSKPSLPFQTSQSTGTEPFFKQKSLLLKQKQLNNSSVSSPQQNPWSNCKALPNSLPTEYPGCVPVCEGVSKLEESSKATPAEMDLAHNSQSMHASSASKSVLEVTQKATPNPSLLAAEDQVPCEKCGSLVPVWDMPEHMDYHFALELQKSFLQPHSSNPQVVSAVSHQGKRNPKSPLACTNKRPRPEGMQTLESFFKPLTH
Chain of UniProt O95398 (O95398 whole entry, looked up): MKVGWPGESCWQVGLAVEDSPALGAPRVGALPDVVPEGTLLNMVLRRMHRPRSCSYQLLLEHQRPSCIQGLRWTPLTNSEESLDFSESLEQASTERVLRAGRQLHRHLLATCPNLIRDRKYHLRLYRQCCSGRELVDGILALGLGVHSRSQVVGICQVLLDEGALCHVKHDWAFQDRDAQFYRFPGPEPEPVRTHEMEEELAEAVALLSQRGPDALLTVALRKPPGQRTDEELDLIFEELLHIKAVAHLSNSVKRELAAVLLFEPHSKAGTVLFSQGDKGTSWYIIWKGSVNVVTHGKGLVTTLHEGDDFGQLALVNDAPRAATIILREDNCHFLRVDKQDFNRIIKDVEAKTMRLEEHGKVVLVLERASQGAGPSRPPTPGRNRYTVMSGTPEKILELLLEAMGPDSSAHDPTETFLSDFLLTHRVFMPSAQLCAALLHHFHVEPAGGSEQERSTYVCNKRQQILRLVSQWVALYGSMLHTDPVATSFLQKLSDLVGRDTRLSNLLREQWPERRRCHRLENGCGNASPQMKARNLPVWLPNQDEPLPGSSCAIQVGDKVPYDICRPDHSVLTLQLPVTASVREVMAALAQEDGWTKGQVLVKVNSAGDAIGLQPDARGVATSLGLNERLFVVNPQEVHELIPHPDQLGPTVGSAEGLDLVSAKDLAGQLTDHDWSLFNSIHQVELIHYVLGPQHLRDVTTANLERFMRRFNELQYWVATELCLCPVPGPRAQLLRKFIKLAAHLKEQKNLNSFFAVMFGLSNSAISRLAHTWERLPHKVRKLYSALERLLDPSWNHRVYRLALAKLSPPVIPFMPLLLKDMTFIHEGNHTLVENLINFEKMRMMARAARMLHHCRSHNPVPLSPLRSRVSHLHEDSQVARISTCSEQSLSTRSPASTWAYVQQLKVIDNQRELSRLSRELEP
Chain of UniProt P54132 (P54132 whole entry, looked up): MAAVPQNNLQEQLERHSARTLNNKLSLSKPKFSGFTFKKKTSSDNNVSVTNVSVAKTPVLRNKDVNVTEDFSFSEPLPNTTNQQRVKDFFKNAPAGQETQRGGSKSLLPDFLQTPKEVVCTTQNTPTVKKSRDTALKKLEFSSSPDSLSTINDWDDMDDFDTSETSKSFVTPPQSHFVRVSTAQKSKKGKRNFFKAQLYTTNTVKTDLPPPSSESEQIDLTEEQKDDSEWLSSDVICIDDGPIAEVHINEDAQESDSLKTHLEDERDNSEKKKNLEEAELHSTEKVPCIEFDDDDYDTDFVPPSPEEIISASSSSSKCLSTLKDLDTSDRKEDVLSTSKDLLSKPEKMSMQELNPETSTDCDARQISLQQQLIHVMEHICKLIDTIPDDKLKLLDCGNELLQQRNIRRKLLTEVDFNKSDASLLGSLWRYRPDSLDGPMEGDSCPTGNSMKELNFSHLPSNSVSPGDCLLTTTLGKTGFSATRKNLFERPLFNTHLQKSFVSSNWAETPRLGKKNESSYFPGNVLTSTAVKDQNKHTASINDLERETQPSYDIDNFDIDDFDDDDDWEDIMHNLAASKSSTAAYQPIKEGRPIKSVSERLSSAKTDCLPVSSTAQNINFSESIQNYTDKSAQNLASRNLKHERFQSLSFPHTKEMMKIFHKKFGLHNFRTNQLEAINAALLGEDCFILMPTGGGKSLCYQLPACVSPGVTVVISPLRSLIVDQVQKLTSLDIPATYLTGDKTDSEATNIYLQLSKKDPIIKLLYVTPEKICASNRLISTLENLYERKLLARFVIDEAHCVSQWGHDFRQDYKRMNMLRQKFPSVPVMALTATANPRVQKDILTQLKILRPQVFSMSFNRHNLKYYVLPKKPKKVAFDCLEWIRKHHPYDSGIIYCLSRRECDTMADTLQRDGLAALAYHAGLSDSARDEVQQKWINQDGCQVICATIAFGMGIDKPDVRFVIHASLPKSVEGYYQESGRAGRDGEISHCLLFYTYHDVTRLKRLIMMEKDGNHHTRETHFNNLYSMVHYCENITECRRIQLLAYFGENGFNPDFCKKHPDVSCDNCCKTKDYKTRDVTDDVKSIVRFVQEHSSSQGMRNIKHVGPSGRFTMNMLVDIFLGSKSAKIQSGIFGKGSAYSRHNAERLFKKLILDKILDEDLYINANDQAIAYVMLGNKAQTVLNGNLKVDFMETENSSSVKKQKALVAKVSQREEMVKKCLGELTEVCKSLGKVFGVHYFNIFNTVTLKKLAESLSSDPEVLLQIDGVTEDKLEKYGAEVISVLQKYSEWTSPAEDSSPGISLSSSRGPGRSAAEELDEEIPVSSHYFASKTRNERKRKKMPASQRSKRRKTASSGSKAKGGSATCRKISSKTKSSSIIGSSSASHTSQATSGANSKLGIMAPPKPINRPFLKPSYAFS
Chain of UniProt Q9NUW8 (Q9NUW8 whole entry, looked up): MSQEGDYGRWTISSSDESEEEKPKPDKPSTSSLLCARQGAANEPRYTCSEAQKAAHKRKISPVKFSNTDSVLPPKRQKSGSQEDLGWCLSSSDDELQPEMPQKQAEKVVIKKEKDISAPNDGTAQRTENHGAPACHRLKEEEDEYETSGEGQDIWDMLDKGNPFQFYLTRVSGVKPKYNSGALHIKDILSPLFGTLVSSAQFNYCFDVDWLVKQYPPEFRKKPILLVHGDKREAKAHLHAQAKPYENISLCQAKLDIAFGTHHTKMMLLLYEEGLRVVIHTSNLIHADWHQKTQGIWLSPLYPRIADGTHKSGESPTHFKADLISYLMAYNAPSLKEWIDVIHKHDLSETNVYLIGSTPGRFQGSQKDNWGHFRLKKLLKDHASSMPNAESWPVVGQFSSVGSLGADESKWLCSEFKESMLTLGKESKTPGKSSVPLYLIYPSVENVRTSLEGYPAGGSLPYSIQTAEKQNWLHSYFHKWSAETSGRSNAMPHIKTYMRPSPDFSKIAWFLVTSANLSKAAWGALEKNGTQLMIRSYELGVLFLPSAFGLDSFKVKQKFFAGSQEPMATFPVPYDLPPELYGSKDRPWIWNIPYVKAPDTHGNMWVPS

In the case of `CC(c1ccccc1)(c1ccccc1)c1ccncc1`, the Potency [1] was inconclusive: 0.251 µM [inhibitor, full curve, poor fit] and the activation [2] was inconclusive: 53.9% [activator] [at 30.8 µM].

In the case of `Cc1cc(C=C2C(=O)NC(=S)NC2=O)c(C)n1C1CCCC1`, the Potency [1] was inconclusive: 75.7 µM [inhibitor, partial curve] and the Potency [2] was “inactive”.

In the case of `N/C(=N\N=C/c1ccc(-c2ccc(O)c(C(=O)O)c2)o1)N[N+](=O)[O-]`, the Potency [3] was inconclusive: 2.82 µM [inhibitor, full curve], the Potency [4] was inconclusive: 19.2 µM [inhibitor, partial curve] and the Potency [5] was active: 2.99 µM. For the same molecule, the Potency [1] was active: 4.78 µM and the Potency [6] was inconclusive: 84.9 µM [inhibitor, single point].

In the case of `Cn1cccc1/C=C1/C(=O)NC(=O)N(Cc2ccc(F)cc2)C1=O`, the Potency [1] was inconclusive: 84.9 µM [inhibitor, single point] and the Potency [2] was inconclusive: 2.82 µM [activator, partial curve, poor fit].

For `Cc1cc(C=C(C#N)C#N)ccc1N1CCCC1`, the Potency [7] was active: 100 µM, the Potency [6] was inconclusive: 19 µM [inhibitor, partial curve, poor fit] and the Potency [2] was active: 28.2 µM.

In the case of `CCOC(=O)C1CCCN(c2ccc([N+](=O)[O-])c3nonc23)C1` (configuration not stated), the Potency [8] was inconclusive: 32.6 µM [inhibitor, single point], the Potency [9] was active: 75.7 µM and the Potency [7] was active: 112 µM. The Potency [10] was active: 100 µM and the Potency [2] was active: 39.8 µM.

In the case of `O=c1cc(C(F)(F)F)c2cc3c4c(c2o1)CCCN4CCC3`, the Potency [8] was active: 0.651 µM, the Potency [7] was active: 50.1 µM and the Potency [10] was active: 39.8 µM. For the same molecule, the Potency [6] was active: 60.1 µM.

In the case of `Cc1cccc(CN2C(=O)CN=C(c3ccccc3)c3ccccc32)c1`, the Potency [7] was inconclusive: 126 µM [activator, partial curve, poor fit], the activity change, negative = inhibition [6] was inactive: 15.3% [at 12.7 µM] and the activation [2] was inconclusive: 34.4% [activator].

With `Nc1ccc2nonc2c1[N+](=O)[O-]` the Potency [7] was inconclusive: 112 µM [activator, partial curve, poor fit], the Potency [10] was active: 112 µM and the Potency [6] was active: 47.8 µM. For the same molecule, the Potency [2] was active: 63.1 µM.

For `CCN(CC)c1ccc(N=Cc2c(O)n(-c3cc(OC)ccc3OC)c(=O)[nH]c2=O)cc1`, the Potency [11] was inconclusive: 12.6 µM [inhibitor, single point], the Potency [7] was active: 70.8 µM and the Potency [2] was inconclusive: 0.0089 µM [activator, full curve, poor fit].

With `COC1C(C)OC(OC2CC(C)(O)Cc3cc4c(c(O)c32)C(=O)c2c(O)cc3c(c2C4=O)OC2OC3(C)C(O)C(N(C)C)C2O)C(OC)C1(C)OC` (configuration not stated) the Potency [12] was inconclusive: 19.2 µM [inhibitor, partial curve] and the Potency [7] was inconclusive: 126 µM [activator, partial curve, poor fit].

With `COc1ccc(N=Cc2c(O)n(Cc3ccccc3)c(=S)[nH]c2=O)c(OC)c1` the Potency [7] was active: 79.4 µM.

With `O=C1NC(=O)N(Cc2ccco2)C(=O)/C1=C\c1cccn1CCOc1ccc(Cl)cc1` the Potency [9] was inconclusive: 84.9 µM [inhibitor, single point] and the Potency [1] was inconclusive: 20 µM [inhibitor, full curve].

With `Cc1cccc(-n2c(O)c(/C=C/C=Nc3ccccc3)c(=O)[nH]c2=O)c1` the Potency [7] was inconclusive: 56.2 µM [activator, partial curve], the Potency [10] was inconclusive: 39.8 µM [activator, full curve] and the Potency [2] was active: 39.8 µM.

With `COc1ccc(N2C(=O)NC(=O)/C(=C/c3ccc([N+](=O)[O-])s3)C2=O)cc1` the Potency [4] was inconclusive: 24.1 µM [inhibitor, partial curve] and the Potency [1] was active: 33.8 µM.

In the case of `O=[N+]([O-])c1ccc(N2CCCCCC2)c2nonc12`, the Potency [8] was inconclusive: 5.17 µM [inhibitor, partial curve], the Potency [7] was inconclusive: 126 µM [activator, partial curve, poor fit] and the Potency [10] was active: 100 µM. The Potency [2] was active: 25.1 µM.

For `O=[N+]([O-])c1ccc(N2CCOCC2)c2c1no[n+]2[O-]`, the Potency [6] was inconclusive: 16.9 µM [inhibitor, full curve].

In the case of `O=C1NC(=O)N(Cc2ccc(F)cc2)C(=O)/C1=C\c1ccc([N+](=O)[O-])s1`, the Potency [9] was active: 16.9 µM and the Potency [1] was active: 12 µM.

For `CCOC(=O)c1cc(CC)sc1/N=C/C1C(=O)NC(=S)NC1=O`, the Potency [7] was inconclusive: 89.1 µM [activator, partial curve, poor fit] and the Potency [10] was inconclusive: 11.2 µM [activator, partial curve, poor fit].
